# Measurements reported in the supplement of paper PMC8728848.
# The list shows a part of the results.
# B1: PpFlo3 (Pichia pastoris) (protein)
# chain: MGSSHHHHHHSSGLVPRGSHMQESGNGTTSDTAYACDIGATPFDGFNATIYQYQASDDNSIQDPVFMSTGYLQRNQLHSTTGVTNPGFNIFTAGVATTTLYGIPNVNYQNMLLELKGYFRADASGNYGLSLRNIDDSAILFFGRETAFECCNENLIPLDEAPTDYSLFTIKEGEASTNPDSYTYTQYLEAGRYYPVRTFFANIRTRAVFNFTMTLPDGSELTDFQNYIFQFGALNQ
# What was measured:
# Assay in all cases: glycan array binding signal (z-score within array); higher = stronger binding
# Conditions in all cases: glycan notation: IUPAC condensed, linker removed
# [1] = target: Gal(a1-3)Gal
# Procedure, shortened: (§1)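 Columns mapping to the same glycan were averaged after glycan names were converted to IUPAC-condensed notation. The data come from 3228 arrays in the Consortium for Functional Glycomics database, limited to those with an available protein sequence. Binding is reported as a within-array Z-score averaged across arrays of one protein sequence and across linkers.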
# [2] = target: Gal(a1-3)Gal(b1-3)GlcNAc
# Procedure, shortened: as §1
# [3] = target: Gal(a1-3)Gal(b1-3)GlcNAc(b1-2)Man(a1-3)[Gal(a1-3)Gal(b1-3)GlcNAc(b1-2)Man(a1-6)]Man(b1-4)GlcNAc(b1-4)GlcNAc
# Procedure, shortened: as §1
# [4] = target: Gal(a1-3)Gal(b1-3)GlcNAc(b1-3)GalNAc
# Procedure, shortened: as §1
# [5] = target: Gal(a1-3)Gal(b1-3)[Fuc(a1-4)]GlcNAc(b1-2)Man(a1-3)[Gal(a1-3)Gal(b1-3)[Fuc(a1-4)]GlcNAc(b1-2)Man(a1-6)]Man(b1-4)GlcNAc(b1-4)GlcNAc
# Procedure, shortened: as §1
# [6] = target: Gal(a1-3)Gal(b1-4)Glc
# Procedure, shortened: as §1
# [7] = target: Gal(a1-3)Gal(b1-4)GlcNAc
# Procedure, shortened: as §1
# [8] = target: Gal(a1-3)Gal(b1-4)GlcNAc(b1-3)GalNAc
# Procedure, shortened: as §1
# [9] = target: Gal(a1-3)Gal(b1-4)[Fuc(a1-3)]GlcNAc
# Procedure, shortened: as §1
# [10] = target: Gal(a1-3)Gal(b1-4)[Fuc(a1-3)]GlcNAc(b1-2)Man(a1-3)[Gal(a1-3)Gal(b1-4)[Fuc(a1-3)]GlcNAc(b1-2)Man(a1-6)]Man(b1-4)GlcNAc(b1-4)GlcNAc
# Procedure, shortened: as §1
# [11] = target: Gal(a1-3)GalNAc
# Procedure, shortened: as §1
# [12] = target: Gal(a1-3)[Gal(a1-4)]Gal(b1-4)GlcNAc
# Procedure, shortened: as §1
# [13] = target: Gal(a1-4)Gal(b1-3)GlcNAc(b1-2)Man(a1-3)[Gal(a1-4)Gal(b1-3)GlcNAc(b1-2)Man(a1-6)]Man(b1-4)GlcNAc(b1-4)GlcNAc
# Procedure, shortened: as §1
# [14] = target: Gal(a1-4)Gal(b1-4)Glc
# Procedure, shortened: as §1
# [15] = target: Gal(a1-4)Gal(b1-4)GlcNAc
# Procedure, shortened: as §1
# [16] = target: Gal(a1-4)Gal(b1-4)GlcNAc(b1-2)Man(a1-3)[Gal(a1-4)Gal(b1-4)GlcNAc(b1-2)Man(a1-6)]Man(b1-4)GlcNAc(b1-4)GlcNAc
# Procedure, shortened: as §1
# [17] = target: Gal(a1-4)Gal(b1-4)GlcNAc(b1-3)Gal(b1-4)Glc
# Procedure, shortened: as §1
# [18] = target: Gal(a1-4)GlcNAc
# Procedure, shortened: as §1
# [19] = target: Gal(a1-6)Glc
# Procedure, shortened: as §1
# [20] = target: Gal(b1-2)Gal
# Procedure, shortened: as §1
# [21] = target: Gal(b1-3)Gal
# Procedure, shortened: as §1
# [22] = target: Gal(b1-3)Gal(b1-4)GlcNAc
# Procedure, shortened: as §1
# [23] = target: Gal(b1-3)Gal(b1-4)GlcNAc(b1-2)Man(a1-3)[Gal(b1-3)Gal(b1-4)GlcNAc(b1-2)Man(a1-6)]Man(b1-4)GlcNAc(b1-4)GlcNAc
# Procedure, shortened: as §1
# [24] = target: Gal(b1-3)GalNAc
# Procedure, shortened: as §1
# [25] = target: Gal(b1-3)GalNAc(a1-3)[Fuc(a1-2)]Gal(b1-4)Glc
# Procedure, shortened: as §1
# [26] = target: Gal(b1-3)GalNAc(a1-3)[Fuc(a1-2)]Gal(b1-4)GlcNAc
# Procedure, shortened: as §1
# [27] = target: Gal(b1-3)GalNAc(b1-3)Gal(a1-4)Gal(b1-4)Glc
# Procedure, shortened: as §1
# [28] = target: Gal(b1-3)GalNAc(b1-4)Gal(b1-4)Glc
# Procedure, shortened: as §1
# [29] = target: Gal(b1-3)GalNAc(b1-4)[Neu5Ac(a2-3)]Gal(b1-4)Glc
# Procedure, shortened: as §1
# [30] = target: Gal(b1-3)GlcNAc
# Procedure, shortened: as §1
# [31] = target: Gal(b1-3)GlcNAc(a1-6)Gal(b1-4)GlcNAc
# Procedure, shortened: as §1
# [32] = target: Gal(b1-3)GlcNAc(b1-2)Man(a1-3)[Gal(b1-3)GlcNAc(b1-2)Man(a1-6)]Man(b1-4)GlcNAc(b1-4)GlcNAc
# Procedure, shortened: as §1
# [33] = target: Gal(b1-3)GlcNAc(b1-2)Man(a1-3)[Gal(b1-3)GlcNAc(b1-2)Man(a1-6)]Man(b1-4)GlcNAc(b1-4)[Fuc(a1-6)]GlcNAc
# Procedure, shortened: as §1
# [34] = target: Gal(b1-3)GlcNAc(b1-2)[Gal(b1-3)GlcNAc(b1-6)]Man(a1-6)[Gal(b1-3)GlcNAc(b1-2)Man(a1-3)]Man(b1-4)GlcNAc(b1-4)GlcNAc
# Procedure, shortened: as §1
# [35] = target: Gal(b1-3)GlcNAc(b1-3)Gal(b1-3)GlcNAc
# Procedure, shortened: as §1
# [36] = target: Gal(b1-3)GlcNAc(b1-3)Gal(b1-4)Glc
# Procedure, shortened: as §1
# [37] = target: Gal(b1-3)GlcNAc(b1-3)Gal(b1-4)GlcNAc
# Procedure, shortened: as §1
# [38] = target: Gal(b1-3)GlcNAc(b1-3)Gal(b1-4)GlcNAc(b1-6)[Gal(b1-3)GlcNAc(b1-3)]Gal(b1-4)Glc
# Procedure, shortened: as §1
# [39] = target: Gal(b1-3)GlcNAc(b1-3)Gal(b1-4)[Fuc(a1-3)]GlcNAc(b1-6)[Gal(b1-3)GlcNAc(b1-3)]Gal(b1-4)Glc
# Procedure, shortened: as §1
# [40] = target: Gal(b1-3)GlcNAc(b1-3)GalNAc
# Procedure, shortened: as §1
# [41] = target: Gal(b1-3)GlcNAc(b1-6)Gal(b1-4)GlcNAc
# Procedure, shortened: as §1
# [42] = target: Gal(b1-3)[Fuc(a1-4)]GlcNAc
# Procedure, shortened: as §1
# [43] = target: Gal(b1-3)[Fuc(a1-4)]GlcNAc(b1-2)Man(a1-3)[Gal(b1-3)[Fuc(a1-4)]GlcNAc(b1-2)Man(a1-6)]Man(b1-4)GlcNAc(b1-4)GlcNAc
# Procedure, shortened: as §1
# [44] = target: Gal(b1-3)[Fuc(a1-4)]GlcNAc(b1-2)Man(a1-3)[Gal(b1-3)[Fuc(a1-4)]GlcNAc(b1-2)Man(a1-6)]Man(b1-4)GlcNAc(b1-4)[Fuc(a1-6)]GlcNAc
# Procedure, shortened: as §1
# [45] = target: Gal(b1-3)[Fuc(a1-4)]GlcNAc(b1-3)Gal(b1-3)[Fuc(a1-4)]GlcNAc
# Procedure, shortened: as §1
binder,measurement,setting,value
B1,glycan array binding signal (z-score),[1],-0.286
same,glycan array binding signal (z-score),[2],-0.287
same,glycan array binding signal (z-score),[3],-0.174
same,glycan array binding signal (z-score),[4],-0.168
same,glycan array binding signal (z-score),[5],-0.284
same,glycan array binding signal (z-score),[6],-0.279
same,glycan array binding signal (z-score),[7],-0.277
same,glycan array binding signal (z-score),[8],-0.266
same,glycan array binding signal (z-score),[9],-0.278
same,glycan array binding signal (z-score),[10],0.579
same,glycan array binding signal (z-score),[11],-0.251
same,glycan array binding signal (z-score),[12],-0.205
same,glycan array binding signal (z-score),[13],-0.288
same,glycan array binding signal (z-score),[14],-0.281
same,glycan array binding signal (z-score),[15],-0.139
same,glycan array binding signal (z-score),[16],-0.096
same,glycan array binding signal (z-score),[17],-0.251
same,glycan array binding signal (z-score),[18],0.008
same,glycan array binding signal (z-score),[19],-0.271
same,glycan array binding signal (z-score),[20],-0.229
same,glycan array binding signal (z-score),[21],-0.234
same,glycan array binding signal (z-score),[22],-0.121
same,glycan array binding signal (z-score),[23],-0.29
same,glycan array binding signal (z-score),[24],-0.285
same,glycan array binding signal (z-score),[25],-0.246
same,glycan array binding signal (z-score),[26],-0.258
same,glycan array binding signal (z-score),[27],-0.286
same,glycan array binding signal (z-score),[28],3.05
same,glycan array binding signal (z-score),[29],-0.142
same,glycan array binding signal (z-score),[30],-0.201
same,glycan array binding signal (z-score),[31],-0.288
same,glycan array binding signal (z-score),[32],-0.277
same,glycan array binding signal (z-score),[33],-0.28
same,glycan array binding signal (z-score),[34],-0.273
same,glycan array binding signal (z-score),[35],-0.232
same,glycan array binding signal (z-score),[36],-0.116
same,glycan array binding signal (z-score),[37],-0.284
same,glycan array binding signal (z-score),[38],-0.255
same,glycan array binding signal (z-score),[39],-0.243
same,glycan array binding signal (z-score),[40],-0.296
same,glycan array binding signal (z-score),[41],-0.23
same,glycan array binding signal (z-score),[42],-0.173
same,glycan array binding signal (z-score),[43],-0.291
same,glycan array binding signal (z-score),[44],-0.296
same,glycan array binding signal (z-score),[45],-0.231
